The text below walks through data of a collection of fitness landscapes (doi:10.1016/j.celrep.2020.107928).

First the molecules themselves.
B1: Caulobacter ParB omega fusion; a variant is named by its letters at X, in order, B8GW30 (parent)
chain: MESVVVGEPGMSEGRRGLGRGLSALLGEVDAAPAQAPGEQLGGSREAPIEILQRNPDQPRRTFREEDLEDLSNSIREKGVLQPILVRPSPDTAGEYQIVAGERAWRAAQRAGLKTVPIMVRELDDLAVLEIGIIENVQRADLNVLEEALSYKVLMEKFERTQENIAQTIGKSXSHVANXMRLLXLPDEVQSYLVSGELTAXHARAIAAAADPVALAKQIIEGGLSVRETEALARKAPNLSAGKSKGGRPPRVKDTDTQALESDLSSVLGLDVSIDHRGSTGTLTITYATLEQLDDLCNRLTRGI

In all, about 81,000 sequences were measured (“one-hybrid fitness for binding parS DNA”: median about -0.17, highest 2% from about 0.51 on). This is one part of the list.

The variants in the experiment derive from B1. The experiment is described as follows: one-hybrid fitness for binding parS DNA (scaled: cognate 1, non-cognate 0); higher = stronger binding. The conditions noted are these: with parS DNA site. In short, it runs like this:
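Pre- and post-selection plasmids were Illumina-sequenced, three replicate libraries were pooled, and any variant with under 10 reads was removed. The libraries were Caulobacter ParB with four specificity codons randomised, selected in E. coli USO through a HIS3 reporter whose site is 19 bp from the promoter. Cells grew 48 hours at 37°C on M9 without histidine, with 0.1 mM IPTG and 5 mM 3-AT. Fitness is the log change in variant-to-wild-type read ratio, rescaled against cognate and non-cognate.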
For the variant AIYY, the “one-hybrid fitness for binding parS DNA” value was not above 0.2.

With VWLF, the “one-hybrid fitness for binding parS DNA” value is not above 0.2.

As to YSFR, the “one-hybrid fitness for binding parS DNA” value was not above 0.2.

QAKM: the “one-hybrid fitness for binding parS DNA” value was not above 0.2.

Consider RNAC, for which the “one-hybrid fitness for binding parS DNA” value amounted to 0.754.

In the case of TLTY, the “one-hybrid fitness for binding parS DNA” value is not above 0.2.

For MTPL, the “one-hybrid fitness for binding parS DNA” value is not above 0.2.

Take RYKK: the “one-hybrid fitness for binding parS DNA” value was not above 0.2.

For LRVV, the “one-hybrid fitness for binding parS DNA” value is not above 0.2.

For SAAT, the “one-hybrid fitness for binding parS DNA” value was not above 0.2.

For the variant CRWF, the “one-hybrid fitness for binding parS DNA” value was not above 0.2.

Take QIYV: the “one-hybrid fitness for binding parS DNA” value is not above 0.2.

Consider FAGT, for which the “one-hybrid fitness for binding parS DNA” value was not above 0.2.

For TAPA, the “one-hybrid fitness for binding parS DNA” value was not above 0.2.

Take REQS: the “one-hybrid fitness for binding parS DNA” value is 0.205.

Turning to TEHR, the “one-hybrid fitness for binding parS DNA” value is not above 0.2.

As to CFQS, the “one-hybrid fitness for binding parS DNA” value was not above 0.2.

As to PRWC, the “one-hybrid fitness for binding parS DNA” value is not above 0.2.

Turning to QKRA, the “one-hybrid fitness for binding parS DNA” value was not above 0.2.

Regarding HKCC, the “one-hybrid fitness for binding parS DNA” value was not above 0.2.

Take RCLT: the “one-hybrid fitness for binding parS DNA” value was 0.966.

Turning to EKPP, the “one-hybrid fitness for binding parS DNA” value is not above 0.2.

In the case of TCVT, the “one-hybrid fitness for binding parS DNA” value is not above 0.2.

WKMG: the “one-hybrid fitness for binding parS DNA” value was not above 0.2.

Consider QMDV, for which the “one-hybrid fitness for binding parS DNA” value was not above 0.2.

With QNSE, the “one-hybrid fitness for binding parS DNA” value was not above 0.2.

In the case of NGES, the “one-hybrid fitness for binding parS DNA” value is not above 0.2.

For the variant RFFN, the “one-hybrid fitness for binding parS DNA” value was determined as 0.262.

Consider YWRG, for which the “one-hybrid fitness for binding parS DNA” value is not above 0.2.

For CILY, the “one-hybrid fitness for binding parS DNA” value was not above 0.2.

Consider KGPV, for which the “one-hybrid fitness for binding parS DNA” value is not above 0.2.

Take HEAR: the “one-hybrid fitness for binding parS DNA” value was not above 0.2.

With QVWC, the “one-hybrid fitness for binding parS DNA” value was not above 0.2.

In the case of TSTP, the “one-hybrid fitness for binding parS DNA” value was not above 0.2.

As for GRGT, the “one-hybrid fitness for binding parS DNA” value is not above 0.2.

Consider PPLM, for which the “one-hybrid fitness for binding parS DNA” value was not above 0.2.

Regarding DTLC, the “one-hybrid fitness for binding parS DNA” value was not above 0.2.

For GSQS, the “one-hybrid fitness for binding parS DNA” value is not above 0.2.

As for PPVN, the “one-hybrid fitness for binding parS DNA” value was not above 0.2.

In the case of KNTF, the “one-hybrid fitness for binding parS DNA” value was not above 0.2.

For TSWR, the “one-hybrid fitness for binding parS DNA” value is not above 0.2.

In the case of GCLL, the “one-hybrid fitness for binding parS DNA” value was not above 0.2.

In the case of DSHS, the “one-hybrid fitness for binding parS DNA” value was not above 0.2.

On to PSAD, for which the “one-hybrid fitness for binding parS DNA” value was not above 0.2.

In the case of ARNN, the “one-hybrid fitness for binding parS DNA” value was not above 0.2.

With GWLS, the “one-hybrid fitness for binding parS DNA” value is not above 0.2.

For QTRT, the “one-hybrid fitness for binding parS DNA” value is not above 0.2.

Regarding LSYT, the “one-hybrid fitness for binding parS DNA” value was not above 0.2.

Turning to DKKL, the “one-hybrid fitness for binding parS DNA” value is not above 0.2.

On to EGSG, for which the “one-hybrid fitness for binding parS DNA” value is not above 0.2.

On to KGYR, for which the “one-hybrid fitness for binding parS DNA” value was not above 0.2.

FYLG: the “one-hybrid fitness for binding parS DNA” value is not above 0.2.

Consider SRYA, for which the “one-hybrid fitness for binding parS DNA” value is not above 0.2.

Take TTIF: the “one-hybrid fitness for binding parS DNA” value was not above 0.2.

For FPHP, the “one-hybrid fitness for binding parS DNA” value was not above 0.2.

For the variant TGPN, the “one-hybrid fitness for binding parS DNA” value is not above 0.2.

As to EQYT, the “one-hybrid fitness for binding parS DNA” value is not above 0.2.

As for VSCW, the “one-hybrid fitness for binding parS DNA” value is not above 0.2.

As to VTFY, the “one-hybrid fitness for binding parS DNA” value was not above 0.2.

KIWG: the “one-hybrid fitness for binding parS DNA” value was not above 0.2.

For HLTC, the “one-hybrid fitness for binding parS DNA” value was not above 0.2.

Turning to DRGR, the “one-hybrid fitness for binding parS DNA” value was not above 0.2.

Turning to GAWS, the “one-hybrid fitness for binding parS DNA” value is not above 0.2.

In the case of QVIL, the “one-hybrid fitness for binding parS DNA” value is not above 0.2.

TISA: the “one-hybrid fitness for binding parS DNA” value is not above 0.2.

For RTIG, the “one-hybrid fitness for binding parS DNA” value came out at 0.98.

RMDC: the “one-hybrid fitness for binding parS DNA” value came to 0.889.

Turning to YNKA, the “one-hybrid fitness for binding parS DNA” value is not above 0.2.

Consider PTSR, for which the “one-hybrid fitness for binding parS DNA” value is not above 0.2.

KAAE: the “one-hybrid fitness for binding parS DNA” value is not above 0.2.

Regarding NQNV, the “one-hybrid fitness for binding parS DNA” value is not above 0.2.

On to VSSH, for which the “one-hybrid fitness for binding parS DNA” value is not above 0.2.

With RADG, the “one-hybrid fitness for binding parS DNA” value worked out at 0.908.

On to VEGR, for which the “one-hybrid fitness for binding parS DNA” value was not above 0.2.

Consider ADRW, for which the “one-hybrid fitness for binding parS DNA” value is not above 0.2.

Take NMRV: the “one-hybrid fitness for binding parS DNA” value was not above 0.2.

For ASSN, the “one-hybrid fitness for binding parS DNA” value is not above 0.2.

In the case of NCKG, the “one-hybrid fitness for binding parS DNA” value was not above 0.2.

In the case of SLHT, the “one-hybrid fitness for binding parS DNA” value is not above 0.2.

Regarding YLER, the “one-hybrid fitness for binding parS DNA” value is not above 0.2.

Consider EHAD, for which the “one-hybrid fitness for binding parS DNA” value was not above 0.2.

For RHCF, the “one-hybrid fitness for binding parS DNA” value was not above 0.2.

For the variant YSIR, the “one-hybrid fitness for binding parS DNA” value was not above 0.2.

As for GGKY, the “one-hybrid fitness for binding parS DNA” value was not above 0.2.
